# Measured values published in the BET-seq Pho4 binding data (Le et al. 2018).
# Some of the results follow. The energies were worked out here from pooled read counts, against the library average; single values are noisy.
# Molecular target: T1, Pho4 (S. cerevisiae) (UniProt P07270)
# T1 sequence: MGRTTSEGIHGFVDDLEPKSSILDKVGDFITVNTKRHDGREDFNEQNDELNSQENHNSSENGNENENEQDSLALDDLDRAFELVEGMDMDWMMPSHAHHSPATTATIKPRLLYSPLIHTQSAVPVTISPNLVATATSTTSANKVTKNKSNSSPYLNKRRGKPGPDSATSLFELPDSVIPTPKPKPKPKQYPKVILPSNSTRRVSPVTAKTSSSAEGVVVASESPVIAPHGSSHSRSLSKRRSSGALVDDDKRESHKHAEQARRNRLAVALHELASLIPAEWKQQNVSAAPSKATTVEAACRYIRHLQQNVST
# Test: relative binding free energy (BET-seq); higher = weaker binding
# Settings: reference: library average
row,Sequence,relative binding free energy [kcal/mol]
1,GTATACACGTGATTTT,0.19
2,TGGTGCACGTGGCTGC,-0.18
3,TTAATCACGTGGAGAT,0.14
4,TATTACACGTGAATGG,0.46
5,CTGGTCACGTGGGGAC,-0.04
6,ATAGTCACGTGATCTT,0.15
7,AGGATCACGTGAAGGA,0.26
8,ACTTGCACGTGTGTTT,0.04
9,GTGGTCACGTGGTAAA,-0.11
10,TTAGGCACGTGCTTTG,-0.19
11,CGAGACACGTGGGGGG,-0.15
12,TACATCACGTGTGTAT,0.04
13,GTTAGCACGTGCTAGG,-0.14
14,TGGATCACGTGGGCGA,-0.07
15,CGTTGCACGTGGGGGC,-0.06
16,ATAGGCACGTGAGCAG,-0.02
17,GTTAACACGTGGGGTT,-0.05
18,TTTTCCACGTGGCAGG,-0.04
19,GTGCACACGTGGGGTT,0.02
20,AGGGCCACGTGGGGAC,-0.21
21,AGGGCCACGTGAGTTT,0.04
22,ACAGTCACGTGTTGTG,0.11
23,TAGGGCACGTGCTAAG,-0.14
24,AGAGGCACGTGGCGGA,-0.16
25,TCGGGCACGTGTTGTT,-0.05

row,Sequence,relative binding free energy [kcal/mol]
1,AGTGGCACGTGCAGTA,-0.11
2,TGCAGCACGTGTTTAA,-0.12
3,TTCGTCACGTGTTGCG,0.13
4,CTATGCACGTGATGGA,0.12
5,TTAGGCACGTGGTCTA,-0.23
6,TTGGTCACGTGAGGGA,0.28
7,GGTTGCACGTGTTGGT,0.09
8,GTCGGCACGTGTCATG,0.09
9,TGGTGCACGTGAGGCC,0.18
10,GTCTTCACGTGCGTGG,0.05
11,GTGGCCACGTGTGGTG,-0.03
12,TATCGCACGTGTTGTG,-0.21
13,ACTGCCACGTGGGGGT,-0.32
14,TTTCACACGTGGGATA,-0.02
15,ATTTACACGTGTTAAT,0.13
16,CGATACACGTGGGAGT,-0.05
17,ATATGCACGTGGGGAT,-0.07
18,TAAGACACGTGCGGTG,-0.09
19,CGGTTCACGTGCGGCT,0.36
20,GAGGGCACGTGTATTA,-0.07
21,TTAATCACGTGGTGTG,0.13
22,ATTTACACGTGTGTCG,0.16
23,TGGGACACGTGTGCAG,-0.11
24,CATATCACGTGGGAGG,0.12
25,TGGACCACGTGTTGTG,-0.15

row,Sequence,relative binding free energy [kcal/mol]
1,AAAGGCACGTGTGGTA,0.01
2,TAAAGCACGTGTAGGG,-0.15
3,AGATGCACGTGGAGCG,0.12
4,CGAGGCACGTGAGGTT,0.2
5,AGGGTCACGTGGAGCG,0.1
6,TAGATCACGTGAGAAT,0.57
7,TGACTCACGTGATGGG,0.23
8,GGTGGCACGTGTAGGG,0.03
9,TAGTGCACGTGGGGGA,-0.25
10,CACATCACGTGGGGTG,0.06
11,TGTGCCACGTGTATTA,-0.12
12,AACGACACGTGGTGGG,-0.04
13,TGTCTCACGTGATAAT,0.28
14,GTAGGCACGTGATTCG,0
15,GTAGTCACGTGTTGCT,0.02
16,GTCTACACGTGTGAGG,0.2
17,CTTTTCACGTGTAGGT,0.15
18,ATAGTCACGTGGAGAG,0.14
19,ATTGTCACGTGTCATT,0.05
20,AGTAGCACGTGTGGCT,-0.15
21,GGTTTCACGTGTGCGG,0.42
22,GGAGTCACGTGAAGAA,0.56
23,GTGCGCACGTGAGTTA,0.1
24,AGCTTCACGTGGGTTA,0.19
25,TGATCCACGTGGCGGT,-0.02

row,Sequence,relative binding free energy [kcal/mol]
1,GTGGTCACGTGTGTGG,0.19
2,GATGACACGTGTAGTG,0.16
3,CAAGGCACGTGTCGGG,-0.04
4,ATGGGCACGTGGCGAC,-0.12
5,GAGAGCACGTGTTAGG,-0.11
6,TAGTACACGTGTCTTT,0.07
7,AGAGACACGTGTGTTG,0
8,GTTGACACGTGAACGG,0.31
9,TGTCTCACGTGGGGCT,0.09
10,CGGTGCACGTGATCGG,-0.08
11,ATGTGCACGTGGAGCT,-0.01
12,AGTTCCACGTGGGGCG,-0.21
13,GAGGTCACGTGCTGAG,0.23
14,AGGTGCACGTGACTTG,0.05
15,TGTGGCACGTGTTTCA,-0.04
16,ATCATCACGTGGTATT,0.05
17,GATAGCACGTGGTGTC,-0.01
18,TAGGGCACGTGGCCGT,-0.31
19,AAAGTCACGTGGCGTG,-0.05
20,GTACACACGTGAGGTT,0.23
21,TCGGCCACGTGTTGGG,-0.09
22,TTACTCACGTGGCAGG,0.16
23,GTCTACACGTGAATGG,0.28
24,TTCTTCACGTGTTTAA,0.15
25,GCGTGCACGTGTGGTT,0.08

row,Sequence,relative binding free energy [kcal/mol]
1,TGCTGCACGTGGGCTT,-0.18
2,ACTTGCACGTGCGGGT,-0.05
3,TATTTCACGTGTAGGT,0.25
4,ACCGTCACGTGGGGGG,-0.07
5,TTCGGCACGTGGAGGG,-0.13
6,CTTATCACGTGCGGGT,0.01
7,AGAGACACGTGTTCGG,0.08
8,GTGCTCACGTGGATTT,0.26
9,ACTGTCACGTGTGCGG,0.14
10,GATAGCACGTGCGTGG,-0.07
11,GGGGTCACGTGAGTTT,0.37
12,AGGGTCACGTGAGGTC,0.32
13,TTGGACACGTGATTGA,0.22
14,AGACACACGTGGGGTT,-0.13
15,TCAAGCACGTGAAGGG,0.27
16,ATTAGCACGTGTCATT,-0.1
17,TTATACACGTGGTTTG,-0.01
18,GAGAGCACGTGGTAGT,-0.11
19,GAAGTCACGTGAATGG,0.36
20,TGAGACACGTGGTGAA,-0.04
21,TTTTTCACGTGAGCGT,0.21
22,GTGCACACGTGGAGTT,0.03
23,ATAGGCACGTGGGGCG,-0.19
24,GTTATCACGTGGTGCT,0.09
25,GCGTGCACGTGGTTGA,-0.07

row,Sequence,relative binding free energy [kcal/mol]
1,TGTTACACGTGTTGGC,0.24
2,GCGTGCACGTGTGGGG,-0.03
3,TTTTGCACGTGGTAGA,0.02
4,ATTGACACGTGTGTTA,-0.07
5,AGATACACGTGGGATA,0.05
6,GTGTCCACGTGTAAGG,0.02
7,TGTGGCACGTGAGGAC,0.11
8,AGATTCACGTGTATGA,0.21
9,AATGACACGTGGGGTA,-0.17
10,TTAACCACGTGTAGGT,-0.03
11,TTCAGCACGTGGGGGC,-0.24
12,GAAGGCACGTGGTGAA,-0.1
13,GTTTTCACGTGGGGGA,0.17
14,GGATACACGTGGTGCT,0.11
15,GGTGACACGTGGGGTG,-0.08
16,AGGGACACGTGTGCGG,0.02
17,GGGTGCACGTGCGGTC,0.09
18,AACGTCACGTGGAGTA,0.17
19,ATGCGCACGTGTGCGT,-0.07
20,GCGTGCACGTGGCGTG,-0.13
21,ATGGCCACGTGATCGG,0.14
